Experimental data published in PubChem BioAssay AID651820 (National Center for Advancing Translational Sciences (NCATS), 2012).
Out of some 340,000 compounds screened, about 12,000 (3.5%) were called active. The inconclusive results got no clear call from the source; some entries with a clear call stand among them for comparison. The call rests on the fitted dose curve; in most records, active means well fitted inhibition curve with a large enough effect; inconclusive means small, poorly fitted or top-dose-only effect, or another doubt; inactive means no such curve, though single readings can be large or run the other way. Potencies of inconclusive entries are left out as doubtful fits.

Test: qHTS Assay for Inhibitors of Hepatitis C Virus (HCV)
Conditions: Huh7.5.1 HCVcc-Cre (HCVcc is cell-culture hepatitis C virus) infection, luciferase reporter, 44 h; activity change, negative = inhibition: at 41.8 µM (top of the series)
Outline: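 Infectious HCVcc-Cre (~0.5 moi) was added to cells just after compound, with cells seeded 4 h earlier at 1,000 per well. Luciferase activity after 44 h culture reported infection; substrate was incubated 15 min at room temperature before reading.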
On the % scale 0 is the no-effect control and ±100 the full control effect; potency means the concentration at half of the fitted maximal effect; tags describe the fitted curve by direction and shape.

SMILES | activity change, negative = inhibition | Potency
c1ccc(-c2nnnc3ccccc23)cc1 | inactive: 36.6% | 
CCN1CCN(C(=O)c2ccc(COc3cccc(Cl)c3)o2)CC1 |  | inconclusive [inhibitor, partial curve]
Cc1cc(C)cc(OCCNS(=O)(=O)c2cccs2)c1 |  | inconclusive [inhibitor, single point]
CC(=O)c1c(C)[nH]c(C(=O)COC(=O)c2c(-c3ccccc3)noc2C)c1C |  | inconclusive [inhibitor, partial curve]
Oc1c(N=NC(=S)Nc2ccccc2F)c2ccccc2n1Cc1ccc(F)cc1 |  | inconclusive [inhibitor, partial curve]
Oc1ccc(N=Nc2n[nH]c(-c3ccccc3)n2)cc1 | inactive: 0.0599% | 
Cc1c(C(=O)Nc2ccccn2)oc2ccccc12 | inactive: -10.6% | 
CCn1nnc(-c2ccccc2NC(=O)c2cc(OC)cc(OC)c2)n1 |  | inconclusive [inhibitor, partial curve]
CCC(C)(C)C1CCC2(CC1)NC(=O)N(CC(=O)N(C)CC(=O)Nc1ccccc1C(F)(F)F)C2=O (stereo unspecified) |  | inconclusive [inhibitor, single point]
CC1(c2ccc(OC(F)F)cc2)NC(=O)N(CC(=O)Nc2ccc(OC(F)F)cc2)C1=O (stereo unspecified) |  | inconclusive [inhibitor, single point]
CCN(Cc1ccccc1)c1ccc(N=Nc2nn(C)c(C)c2[N+](=O)[O-])cc1 |  | inconclusive [inhibitor, partial curve, poor fit]
COc1ccc(NC(=O)C2(c3ccc(NC(=O)c4ccc(OC)cc4)cc3)CCCC2)cc1 |  | inconclusive [inhibitor, full curve]
CC1(C)CC(=O)c2cc(OCC(=O)NCCCN3CCN(c4ccccc4F)CC3)ccc2O1 |  | inconclusive [inhibitor, partial curve]
CCCCn1c2ccc(F)cc2c2nnc(SCCN3CCOCC3)nc21 |  | inconclusive [inhibitor, partial curve]
CCCN(CC(=O)Nc1ccccc1C)C(=O)c1ccc(COc2ccccc2)cc1 |  | inconclusive [inhibitor, partial curve]
O=C(CCc1nnc2n(Cc3ccc(Cl)cc3)c(=O)c3ccccc3n12)NCCCN1CCOCC1 | inactive: -19.1% | 
O=C(CSc1cn(CCNC(=O)c2cccs2)c2ccccc12)NC1CCCC1 |  | inconclusive [inhibitor, single point]
CCOC(=O)c1c(C)c(C)n(Cc2cccc(OC)c2OC)c1C |  | inconclusive [inhibitor, single point]
Cc1ccc(C(=O)N2CCC(C(=O)c3ccc(Cl)cc3)CC2)cc1 |  | inconclusive [inhibitor, single point]
COc1ccc(CCNC(C(=O)Nc2cc(C)cc(C)c2)c2ccccc2)cc1 (stereo unspecified) |  | inconclusive [inhibitor, partial curve]
CCOC(=O)c1cnc2c(C)cccc2c1Nc1ccc(N2CCOCC2)cc1 | inactive: 1.09% | 
CCCN(CCC)CCCNC(=O)c1cn(CC)c2ccc(S(=O)(=O)N3CCc4ccccc4C3)cc2c1=O |  | inconclusive [inhibitor, partial curve]
Cn1c(SCC(=O)c2ccccc2)nnc1-c1ccncc1 | inactive: 4.51% | 

SMILES | activity change, negative = inhibition | Potency
Cc1cn(C2CC(O)C(CO)O2)c(=O)n(CCCc2ccccc2)c1=O (stereo unspecified) | inactive: 34.1% | 
COC(=O)[C@H](Cc1ccccc1)NC(=O)N(C)Cc1ccccc1 | inactive: 15.8% | 
CC(=O)c1ccc(S(=O)(=O)NCc2cccnc2)cc1 | inactive: -3.14% | 
Clc1ccc(Nc2ccccc2)nn1 | inactive: 4.04% | 
COc1cc2ccccc2cc1C(=O)N(CCN(C)C)c1nc2c(F)cccc2s1 |  | active: 14.1 µM
CCCCN(CCCNC(=O)C1CCN(S(=O)(=O)CC)CC1)c1ccccc1 |  | inconclusive [inhibitor, partial curve, poor fit]
Cc1cc(N/N=C/c2cccc(Cl)c2)nc(NCc2ccccc2)n1 |  | active: 12.6 µM
CN(C)CCCN1c2ccccc2Sc2ccccc21 |  | inactive
C=CCn1c(C)nc2c(cnn2-c2ccccc2)c1=O | inactive: -1.61% | 
O=C(Nc1ccc(Nc2ccccc2)cc1)c1c(F)c(F)c(F)c(F)c1F |  | inconclusive [inhibitor, single point]
CCN(CC)C(=O)[C@H]1CC(CC(=O)NCCc2ccccn2)C(=O)N2CCc3c([nH]c4ccc(OC)cc34)[C@]12C (stereo partly specified) |  | inconclusive [inhibitor, single point]
O=C(Cc1cccc2ccccc12)NC(NC(=S)Nc1ccccc1Cl)C(Cl)(Cl)Cl (stereo unspecified) |  | inconclusive [inhibitor, partial curve]
CCN(CC(=O)Nc1cc(S(=O)(=O)N2CCCCC2)ccc1C)Cc1ccccc1 |  | inconclusive [inhibitor, single point]
CCOC(=O)c1c(NC(=O)C(C)N2CCN(C(=O)c3ccco3)CC2)sc2c1CCCC2 (stereo unspecified) |  | active: 10 µM
CC(NC(=O)NC(=O)c1ccc(Cl)cc1Cl)C1CC1 (stereo unspecified) | inactive: 6.88% | 
CCn1nnc(-c2ccccc2NC(=O)c2cccc(-n3cnnn3)c2)n1 |  | inconclusive [inhibitor, single point]
c1ccc(Nc2nc(NCC3CCCO3)c3ccccc3n2)cc1 (stereo unspecified) |  | active: 7.08 µM
COc1ccc(C(=O)O/N=C(\N)c2cccc(C)c2)cc1OC |  | inconclusive [inhibitor, partial curve, poor fit]
CCN(CC)CCNC(=O)c1cc2c(=O)n(CC)c3ccccc3c2s1 |  | inconclusive [inhibitor, partial curve, poor fit]
COc1ccccc1N1CCN(C(=O)c2cc3c(C)nc4ccccc4c3o2)CC1 |  | active: 6.31 µM
Cc1cccc(-n2c(SCC(=O)N3CCCC3)nnc2-c2ccccn2)c1C | inactive: 14.8% | 
CCOC(=O)c1c(NC(=O)C(F)(OC)C(F)(F)F)sc2c1CCN(C)C2 (stereo unspecified) |  | inconclusive [inhibitor, single point]
O=C(/C=C/c1cccnc1)c1cccc(O)c1 |  | inconclusive [inhibitor, single point]
